Molecular target: T1, FLAG-FAM111B (purified recombinant) (human, UniProt Q6SJ93 1-734)
T1 sequence: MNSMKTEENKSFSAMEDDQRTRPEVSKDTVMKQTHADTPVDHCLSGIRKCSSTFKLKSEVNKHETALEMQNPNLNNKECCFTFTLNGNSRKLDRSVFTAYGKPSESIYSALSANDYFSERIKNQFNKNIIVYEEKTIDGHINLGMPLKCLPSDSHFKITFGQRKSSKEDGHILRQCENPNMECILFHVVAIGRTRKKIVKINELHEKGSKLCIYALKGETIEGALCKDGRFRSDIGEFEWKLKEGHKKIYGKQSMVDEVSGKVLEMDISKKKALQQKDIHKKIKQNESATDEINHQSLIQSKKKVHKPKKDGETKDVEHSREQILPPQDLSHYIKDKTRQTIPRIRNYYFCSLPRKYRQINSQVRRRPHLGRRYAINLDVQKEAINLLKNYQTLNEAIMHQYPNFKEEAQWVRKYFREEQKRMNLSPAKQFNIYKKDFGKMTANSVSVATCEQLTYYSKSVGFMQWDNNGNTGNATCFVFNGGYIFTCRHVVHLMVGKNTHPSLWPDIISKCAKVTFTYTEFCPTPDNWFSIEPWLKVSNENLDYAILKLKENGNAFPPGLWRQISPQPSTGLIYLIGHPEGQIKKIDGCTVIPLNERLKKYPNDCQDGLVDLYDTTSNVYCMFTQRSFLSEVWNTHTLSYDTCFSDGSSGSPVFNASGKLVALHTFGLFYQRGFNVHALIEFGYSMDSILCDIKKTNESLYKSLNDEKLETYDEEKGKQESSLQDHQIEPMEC
Test: co-IP

binding result: binds
B1: FLAG-FAM111A (purified recombinant) (enzyme)
chain: MSCKKQRSRKHSVNEKCNMKIEHYFSPVSKEQQNNCSTSLMRMESRGDPRATTNTQAQRFHSPKKNPEDQTMPQNRTIYVTLKVNHRRNQDMKLKLTHSENSSLYMALNTLQAVRKEIETHQGQEMLVRGTEGIKEYINLGMPLSCFPEGGQVVITFSQSKSKQKEDNHIFGRQDKASTECVKFYIHAIGIGKCKRRIVKCGKLHKKGRKLCVYAFKGETIKDALCKDGRFLSFLENDDWKLIENNDTILESTQPVDELEGRYFQVEVEKRMVPSAAASQNPESEKRNTCVLREQIVAQYPSLKRESEKIIENFKKKMKVKNGETLFELHRTTFGKVTKNSSSIKVVKLLVRLSDSVGYLFWDSATTGYATCFVFKGLFILTCRHVIDSIVGDGIEPSKWATIIGQCVRVTFGYEELKDKETNYFFVEPWFEIHNEELDYAVLKLKENGQQVPMELYNGITPVPLSGLIHIIGHPYGEKKQIDACAVIPQGQRAKKCQERVQSKKAESPEYVHMYTQRSFQKIVHNPDVITYDTEFFFGASGSPVFDSKGSLVAMHAAGFAYTYQNETRSIIEFGSTMESILLDIKQRHKPWYEEVFVNQQDVEMMSDEDL

Reference: doi:10.1101/2020.03.16.993600 (bioRxiv, 2020)
